According to PMC6919601, “Identification of Plasmodium dipeptidyl aminopeptidase allosteric inhibitors by high throughput screening” (PLoS ONE, 2019):
Out of some 110,000 compounds screened, about 230 (0.21%) showed an effect of 50% or more. The list shows a part of the results.

biological target: DPAP1 (Plasmodium falciparum, UniProt Q8IIJ9); test: primary screen, percent inhibition; read by cleavage of a fluorogenic dipeptide substrate; higher = more effect of the substance; parameters: species or system P. falciparum D10 trophozoite lysates; single well
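Also: 30 min substrate incubation versus DMSO and 10 µM JCP410 controls.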

DPAP1, sequence (Q8IIJ9 whole entry, looked up): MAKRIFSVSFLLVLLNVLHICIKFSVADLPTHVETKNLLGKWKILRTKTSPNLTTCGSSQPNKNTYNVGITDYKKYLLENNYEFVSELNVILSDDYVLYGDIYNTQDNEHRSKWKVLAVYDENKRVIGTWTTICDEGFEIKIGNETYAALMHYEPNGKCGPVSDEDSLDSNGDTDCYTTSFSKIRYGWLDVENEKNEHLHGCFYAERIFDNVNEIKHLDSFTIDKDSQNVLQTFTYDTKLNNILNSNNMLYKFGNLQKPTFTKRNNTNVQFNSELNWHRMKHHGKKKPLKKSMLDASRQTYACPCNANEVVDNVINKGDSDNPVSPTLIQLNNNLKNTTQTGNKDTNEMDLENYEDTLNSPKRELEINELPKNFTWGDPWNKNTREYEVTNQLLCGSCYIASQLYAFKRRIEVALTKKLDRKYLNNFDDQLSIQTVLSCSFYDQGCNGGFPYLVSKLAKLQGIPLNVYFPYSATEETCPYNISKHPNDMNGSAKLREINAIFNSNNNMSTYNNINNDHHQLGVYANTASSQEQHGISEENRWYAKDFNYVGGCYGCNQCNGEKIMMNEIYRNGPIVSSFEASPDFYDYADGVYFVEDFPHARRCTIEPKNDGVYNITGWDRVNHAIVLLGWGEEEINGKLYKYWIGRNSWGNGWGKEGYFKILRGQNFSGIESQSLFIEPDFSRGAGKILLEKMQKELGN

Going from CC(C)C[C@H](NC(=O)N1CCC(O)(c2ccccc2)CC1)C(=O)NCC#N to CC(C)C[C@H](NC(=O)C1CCC1)C(=O)NCC#N, the “% Inhibition @ 10 uM” value falls from 1.35% to -3.04%.

Compared with Cc1cc(C)c(OCCOCCN2CCCC2)c(C)c1, Cc1cc(C)c(S(=O)(=O)NCC(=O)N2CCOCC2)c(C)c1 is higher in “% Inhibition @ 10 uM” value: -16% for the first, -2.15% for the second.

Compared with O=C(CCc1nc(-c2cccs2)no1)Nc1cnc2ccccc2c1, Oc1nc(-c2ccncc2)nc2ccccc12 is higher in “% Inhibition @ 10 uM” value: -5.27% for the first, 5.35% for the second.

Compared with CC(C)(C)c1ccc(OCC(=O)Nc2ccc(S(=O)(=O)N3CCCCCC3)cc2)cc1, O=[N+]([O-])c1ccc(S(=O)(=O)N2CCCCCC2)cc1 is higher in “% Inhibition @ 10 uM” value: 1.94% for the first, 16.8% for the second.

First: COc1ccc2[nH]c(SCC(=O)Nc3ccc(S(=O)(=O)Nc4onc(C)c4C)cc3)nc2c1
Second: COc1cccc(/N=C2\SC(C(=O)Nc3ccc(C(=O)O)cc3)CC(=O)N2C)c1 (centres unmarked)
The “% Inhibition @ 10 uM” value of the first is higher: 22.4% for the first, 5.25% for the second.

First: Cc1cc(C)c(S(=O)(=O)NCc2csc(-c3cccnc3)n2)c(C)c1
Second: Cc1ccc2c(c1)cc1c(=O)n(Cc3cccc(F)c3)nc(C)n12
The “% Inhibition @ 10 uM” value of the first is higher: 0.747% for the first, -5.63% for the second.

Compared with CCOc1ccc(N(CC(=O)NC2CC2)S(=O)(=O)c2ccc(C)cc2)cc1, Cc1ccc(OCC(=O)Nc2ccc(Oc3ccccc3)cc2)cc1 is higher in “% Inhibition @ 10 uM” value: -4.7% for the first, 5.84% for the second.

Compared with CCCCCCNC(=O)c1ccccc1-c1nc2ccccc2[nH]1, COc1ccccc1C(=O)NCCNC1=NS(=O)(=O)c2ccccc21 is higher in “% Inhibition @ 10 uM” value: 1.88% for the first, 5.39% for the second.

First: Cc1ccc(NC(=O)C(C)Oc2ccccc2C)cc1O (centres unmarked)
Second: CCc1ccccc1N(CC(=O)Nc1ccc2ccccc2c1)S(C)(=O)=O
The “% Inhibition @ 10 uM” value of the first is lower: -7.89% for the first, -3.46% for the second.

First: CCC(C)NC(=O)c1cc2c(s1)CSC2 (centres unmarked)
Second: CCCN1Cc2cccc(C(=O)NC(C)c3cccs3)c2C1=O (centres unmarked)
The “% Inhibition @ 10 uM” value of the first is higher: 2.12% for the first, -0.499% for the second.

Going from O=C(Nc1nc(-c2ccc(Cl)c(Cl)c2)cs1)C1CC1 to COc1ccccc1Nc1nc(-c2ccc(S(=O)(=O)N3CCCCC3)cc2)cs1, the “% Inhibition @ 10 uM” value rises from -0.473% to 0.708%.

Going from COc1ccc(C2CC(=O)N3C(=C2C#N)SCC3(O)c2ccco2)cc1 (centres unmarked) to COc1ccc(C2C(C#N)=C(N)OC3=C2C(=O)CCC3)cc1COc1ccccc1 (centres unmarked), the “% Inhibition @ 10 uM” value falls from 20.2% to 1.02%.

First: CCN(C(=O)c1sc(NC(=O)c2cccs2)c(C#N)c1C)C1CCCCC1
Second: N#Cc1c(C(F)(F)F)cc(-c2cccs2)nc1SCC(=O)N1CCCCC1
The “% Inhibition @ 10 uM” value of the first is lower: 14.8% for the first, 87% for the second.

Compared with NC(=O)CSc1nc2nncc-2c(O)n1-c1ccccc1, CCOC(=O)C1=C(O)/C(=C\c2ccc(OCc3ccccc3)cc2)N=C1C is lower in “% Inhibition @ 10 uM” value: 1.57% for the first, 0.131% for the second.

First: Fc1ccc(C2NCCc3c2[nH]c2ccccc32)cc1 (centres unmarked)
Second: CC(=O)N1CCc2c([nH]c3ccccc23)C1c1cccc(C)c1 (centres unmarked)
The “% Inhibition @ 10 uM” value of the first is higher: 2.99% for the first, -1.62% for the second.

Going from Cc1cccc(CCNC(=O)c2cccc3c2SCCC3=O)c1 to Cc1cccc(CNCc2c(C(=O)O)c(C)n(Cc3c(F)cccc3Cl)c2C)c1, the “% Inhibition @ 10 uM” value rises from -2.58% to 2.99%.

First: CCN1C(=O)S/C(=C/c2ccc(OCC(N)=O)c(OC)c2)C1=O
Second: COc1ccc(/C=C2/SC(=O)N(CC(=O)Nc3nccs3)C2=O)cc1OC
The “% Inhibition @ 10 uM” value of the first is higher: 2.87% for the first, -8.06% for the second.

Compared with CCN1C(=O)C(=CNc2ccccc2OC)C(=O)N(CC)C1=O, COc1ccc(OC)c(NC2=C(Cl)C(=O)N(Cc3ccccc3)C2=O)c1 is higher in “% Inhibition @ 10 uM” value: 0.687% for the first, 3.05% for the second.

Compared with CC1(C)CC(=O)c2sc(NC(=O)Cc3cccs3)nc2C1, Cc1nonc1NC(=O)CN1C(=O)c2ccccc2C1=O is higher in “% Inhibition @ 10 uM” value: -5.19% for the first, 4.07% for the second.

Going from CCN(CC)c1ccc(NC(=O)c2cc(Cl)ccc2OC)cc1 to O=C(Cc1ccc(Cl)cc1)Nc1ccccn1, the “% Inhibition @ 10 uM” value rises from -4.72% to -2.19%.

Compared with CN1CCCN(Cc2ccc([N+](=O)[O-])o2)CC1, COc1cccc(OCC(=O)N2CCN(C)CC2)c1 is higher in “% Inhibition @ 10 uM” value: 1.48% for the first, 6.76% for the second.

Going from COCc1cc(C2SCC(=O)Nc3c2c(-c2ccccc2)nn3-c2ccccc2)ccc1OC (centres unmarked) to O=C1c2ccccc2C(=O)N1Cc1ccsc1-c1ccccc1, the “% Inhibition @ 10 uM” value falls from 2.09% to -2.65%.

Compared with O=c1[nH]c2ccccc2c(=O)n1Cc1ccccc1, Cn1c(=O)n(Cc2cccc(Br)c2)c(=O)c2c1ncn2Cc1ccccc1 is higher in “% Inhibition @ 10 uM” value: -6.33% for the first, 3.53% for the second.

Compared with O=C(Nc1ccc(-c2nc3cc(NC(=O)C(F)(F)F)ccc3s2)cc1)C(F)(F)F, O=C(Nc1ccc(-c2cn3ccccc3n2)cc1)C1CC1c1ccccc1 (centres unmarked) is lower in “% Inhibition @ 10 uM” value: 1.71% for the first, -2.63% for the second.

Going from N/C(=N\c1ccccc1)Nc1nc(O)c2c(n1)CCCC2 to CCOC(=O)c1c(NC(=O)CN2C(=O)c3ccccc3S2(=O)=O)sc2c1CCCC2, the “% Inhibition @ 10 uM” value rises from -1.17% to 5.44%.

First: CCCCCCCCNC(=O)Cc1ccc(OC)cc1
Second: COc1ccc(CSC(=S)NC2CCS(=O)(=O)C2)cc1 (centres unmarked)
The “% Inhibition @ 10 uM” value of the first is lower: -3.49% for the first, 6.08% for the second.

First: CCOc1ccc(NC(=O)c2c(NC(=O)CCC(=O)O)sc3c2CCC(C)C3)cc1 (centres unmarked)
Second: CCOc1ccc(-c2cn3c(n2)sc2cc(C(=O)NCCC(C)C)ccc23)cc1
The “% Inhibition @ 10 uM” value of the first is higher: 12.5% for the first, -1.19% for the second.

Going from O=C(/C=C/c1ccc2c(c1)OCO2)N1CCCC1 to Cc1sc2ncnc(Nc3ccc4c(c3)OCO4)c2c1C, the “% Inhibition @ 10 uM” value rises from 2.16% to 5.44%.

First: C=COCCOCCn1c2ccccc2c2ccccc21
Second: COCCCNCc1c(C(=O)O)n(Cc2ccc(F)cc2Cl)c2ccccc12
The “% Inhibition @ 10 uM” value of the first is lower: 1.04% for the first, 1.93% for the second.

Going from O=C(CNS(=O)(=O)c1ccc(Cl)cc1)N1CCN(c2ccccc2F)CC1 to CCOC(=O)c1cc(-c2ccc(C)cc2)n(CCC(=O)N2CCN(c3ccccn3)CC2)c1C, the “% Inhibition @ 10 uM” value rises from 0.59% to 6.38%.

First: COc1ccc(C2C(C(=O)NC3CCCCC3)c3cc(OC)c(OC)cc3C(=O)N2C)cc1 (centres unmarked)
Second: CCCCN(C)C(=O)/C(=C/c1cn(CC)c2ccccc12)NC(=O)c1cc(OC)c(OC)c(OC)c1
The “% Inhibition @ 10 uM” value of the first is lower: -0.363% for the first, 3.24% for the second.

First: CCc1nc2c(cnn2-c2ccc(C)cc2)c(=O)n1Cc1ccc(C)cc1
Second: CNC(=O)c1ccc(Cn2c(SCc3ccc(F)cc3)nc3ccncc32)cc1
The “% Inhibition @ 10 uM” value of the first is higher: 0.208% for the first, -1.92% for the second.

Going from N#CCNC(=O)C1(NC(=O)N2CCN(c3ccc(-c4cccnc4)cc3)CC2)CCCCC1 to CCOC(=O)N1CCC(N2CCN(c3cccc(Cl)c3)CC2)CC1, the “% Inhibition @ 10 uM” value rises from 0.173% to 1.57%.

Compared with CN1CCC(Oc2ccccc2Sc2ccccc2)CC1, CC1(C)Cc2ccccc2CN1C(=O)c1ccccc1 is higher in “% Inhibition @ 10 uM” value: -2.18% for the first, 5.37% for the second.

First: Cc1nc(NCc2ccc(F)cc2)nc2c1C(=O)c1ccccc1-2
Second: Cc1cc2cc(CNC(=S)NCc3ccccc3)ccc2[nH]1
The “% Inhibition @ 10 uM” value of the first is higher: -2.91% for the first, -5.58% for the second.

Going from COc1cc2c(cc1/C=C1/NC(=O)N(Cc3ccc(Cl)c(Cl)c3)C1=O)OCO2 to CS(=O)(=O)CCC(C(=O)NCc1ccc2c(c1)OCO2)N1Cc2ccccc2C1=O (centres unmarked), the “% Inhibition @ 10 uM” value rises from -5.7% to -3.81%.

Compared with O=C(CN1CCOCC1)NCC12CC3CC(CC(C3)C1)C2, Cn1c(SCC(=O)NC23CC4CC(CC(C4)C2)C3)nnc1-c1ccncc1 is higher in “% Inhibition @ 10 uM” value: -4.98% for the first, -0.0678% for the second.

First: CCOC(=O)c1cc2c(=O)n3ccccc3nc2n(C)/c1=N/C(=O)c1cc2ccccc2o1
Second: O=C(O)c1cc2cc(OCc3ccccc3)ccc2[nH]1
The “% Inhibition @ 10 uM” value of the first is higher: -2.04% for the first, -4.52% for the second.

Compared with COc1ccc(Br)cc1CNC(=O)c1cc2c(O)nc3ccccc3c2s1, CN(CCNC(=O)c1cc2ccc3cccnc3c2[nH]1)Cc1ccccc1 is higher in “% Inhibition @ 10 uM” value: -0.499% for the first, 3.28% for the second.

First: CC(=O)N(CN1C(=O)C2CCCCC2C1=O)c1ccccc1C (centres unmarked)
Second: CC(=O)N(C1=C(N2CCOCC2)C(=O)c2ccccc2C1=O)C1CCCCC1
The “% Inhibition @ 10 uM” value of the first is higher: -1.17% for the first, -5.14% for the second.

First: Oc1ccc(CNCC2NCCc3ccccc32)cc1Cl (centres unmarked)
Second: O=C1NC(=S)/C(=C/c2ccccc2Cl)S1
The “% Inhibition @ 10 uM” value of the first is lower: 1.03% for the first, 2.16% for the second.

Compared with COC(=O)C1=C(O)/C(=C\c2ccccc2C(F)(F)F)N=C1C, COCCCNC(=O)c1cc(C)nc2c1c(C)nn2-c1ccccc1Cl is higher in “% Inhibition @ 10 uM” value: -11.3% for the first, -4.97% for the second.

Going from CC(C)C[C@H](NS(=O)(=O)c1ccc2ccccc2c1)C(=O)NCC#N to Cc1cccc(N(C)S(=O)(=O)c2ccc(C(=O)Nc3cccc(C(=O)O)c3)cc2)c1, the “% Inhibition @ 10 uM” value rises from -3.04% to -2.97%.

Compared with CC(=O)C(C)n1c(CN2CCCCC2)nc2c1c(=O)n(C)c(=O)n2C (centres unmarked), CCOC(=O)N1CCN(CC(O)COc2ccc(C(C)C)cc2)CC1 (centres unmarked) is lower in “% Inhibition @ 10 uM” value: 8.49% for the first, -0.088% for the second.

First: CCN(CC)CC1CCc2c(c3ccccc3n2C)C1=O (centres unmarked)
Second: Cn1ccnc1SCC(O)c1ccc(-c2ccccc2)cc1 (centres unmarked)
The “% Inhibition @ 10 uM” value of the first is lower: -8.01% for the first, 3.66% for the second.

First: FC(F)(F)c1cc(-c2cccs2)nc(NC2CCCC2)n1
Second: CN(C)c1ccc2c(c1)OC(N)=C(C#N)C2c1cccc(C(F)(F)F)c1 (centres unmarked)
The “% Inhibition @ 10 uM” value of the first is lower: -10.1% for the first, 1.26% for the second.

Going from O=C(N1CCCc2ccccc21)C(O)(c1ccccc1)c1ccccc1 to O=C(CN1C(=O)S/C(=C\c2ccco2)C1=O)c1ccc(Br)cc1, the “% Inhibition @ 10 uM” value falls from 0.219% to -7.09%.

Going from CC(C)C(NC(=O)C12CC3CC(CC(C3)C1)C2)C(=O)Nc1nc2ccccc2s1 (centres unmarked) to CC(C)(C)c1cc(-c2ccccc2)no1, the “% Inhibition @ 10 uM” value rises from -3.06% to -1.5%.

Compared with COc1ccc(-c2nc(CSCC(=O)O)c(C)o2)cc1, Cc1oc(-c2ccc(Cl)cc2)nc1CSc1nc2ccncc2[nH]1 is lower in “% Inhibition @ 10 uM” value: -1.99% for the first, -2.37% for the second.

Going from CN(C)S(=O)(=O)N1CCCN(S(=O)(=O)N(C)C)CC1 to CCOC(=O)c1ccc(-n2c(C)c3c(C)nnc(C)c3c2C)cc1, the “% Inhibition @ 10 uM” value rises from -5.65% to 4.79%.

COc1ccc(C2=CSC(/N=C/c3ccc(F)cc3)=NN2)cc1 was tested, and the “% Inhibition @ 10 uM” value was 8.01%.
